# Inconclusive means that the source gave no clear call. Such entries were picked first, then a sample of the others. For some of these results: A potency beside an inconclusive call is a rough fit, not a confirmed value. Calls of active or inactive are those of the source. Unless noted, the call rests on the fitted dose curve; in most records, active means well fitted curve in the direction sought with a large enough effect in the repeat runs; inconclusive means weak or mixed curves; inactive means no such curve, though single readings can be large; an effect the other way counts as inactive or inconclusive.
# Assays:
# [1] = target: Luciferin 4-monooxygenase (Photinus pyralis) (UniProt P08659); assay: qHTS assay to identify small molecule inhibitors of firefly luciferase (AID 1224835); further: nearly all actives have a fitted effect of over 25% in size; further: potency means the concentration at half of the fitted maximal effect
# Method in brief: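 Biochemical qHTS: compounds run as interplate titrations against purified firefly enzyme, with D-luciferin and ATP each at its KM concentration. Light output recorded by CCD imaging.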
# [2] = qHTS assay to identify small molecule agonists of the hypoxia (HIF-1) signaling pathway - cell viability counter screen (AID 1224844; calls by dose curve; further: nearly all actives have a fitted effect of over 50% in size; further: potency means the concentration at half of the fitted maximal effect)
# Method in brief: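 HRE-bla ME-180 cells, 2,000/well in 0.5% dialyzed FBS medium, treated 17 h at 37C with compounds. Viability read in the same wells as the bla reporter, by CellTiter-Glo luminescence after 30 min at room temperature.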
# [3] = qHTS assay to identify small molecule agonists of H2AX (AID 1224845; active means well fitted activation curve with a large enough effect in the signal ratio in the repeat runs, not every such curve was filed as active; inconclusive means weak or mixed curves; the % refers to the signal ratio; further: potency means the concentration at half of the fitted maximal effect); settings: CHO-K1 phospho-H2AX Ser139 HTRF, 3 h; series mostly up to 154 µM
# Method in brief: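 Wild-type CHO-K1 cells, plated overnight, exposed 3hr at 37C to 15 concentrations (0.76% DMSO final). Lysed, then HTRF anti-pH2AX (S139) cryptate and anti-H2AX-d2 antibodies, 24 hr room temperature; 665/620 nm emission read.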
# [4] = qHTS assay to identify small molecule agonists of the hypoxia (HIF-1) signaling pathway (AID 1224846; active means well fitted activation curve with a large enough effect in the signal ratio in the repeat runs, not every such curve was filed as active; inconclusive means weak or mixed curves; the % refers to the signal ratio; further: potency means the concentration at half of the fitted maximal effect); settings: HRE-bla ME-180 cells, beta-lactamase ratio, 17 h; activation: at 76.8 µM (top of the series) unless noted
# Method in brief: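 HRE-bla ME-180 beta-lactamase reporter cells in medium with 0.5% dialyzed FBS, pre-incubated 5 h then exposed to compounds 17 h at 37C, 5% CO2; reporter induction read with CCF4-AM FRET substrate.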
# [5] = qHTS assay to identify small molecule antagonists of the estrogen related receptor (ERR) signaling pathway from Tox21 library (AID 1224848); further: potency means the concentration at half of the fitted maximal effect; nearly all actives have a fitted effect of over 50% in size
# Method in brief: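 ERR reporter cell line (from NTP) seeded 2,000 cells/well, rested 6 h at 37 C/5% CO2, then pin-dosed with compounds in DMSO. After 18 h at 37 C, ONE-Glo added; luminescence read after 30 min at room temperature.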
# [6] = qHTS RealTime-Glo MT Cell Viability Assay in HepG2 cells - 24 hour (AID 1224867); further: nearly all actives have a fitted effect of over 50% in size; further: potency means the concentration at half of the fitted maximal effect
# Method in brief: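 Cells + NanoLuc/prosubstrate dispensed (600 cells/well) → 5 h at 37 C/5% CO2 → compounds in DMSO transferred → 40 h incubation at 37 C, luminescence read at 0, 8, 16, 24, 32, 40 h.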
# [7] = target: Nuclear receptor subfamily 1 group I member 3 (Homo sapiens) (UniProt Q14994); assay: qHTS assay to identify small molecule agonists of the constitutive androstane receptor (CAR) signaling pathway (AID 1224839); further: potency means the concentration at half of the fitted maximal effect; nearly all actives have a fitted effect of over 15% in size
# Method in brief: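 Compounds tested at 15 concentrations on HepG2 cells stably harbouring hCAR and CYP2B6-2.2kb reporter constructs, co-treated with PK11195 (0.75 uM final), 24 h at 37 C; luminescent reporter signal quantified.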
# [8] = qHTS RealTime-Glo MT Cell Viability Assay in HEK293 cells - 32 hour (AID 1224868); further: nearly all actives have a fitted effect of over 50% in size; further: potency means the concentration at half of the fitted maximal effect
# Method in brief: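 Tox21 10K qHTS, HEK293, 600 cells/well, RealTime-Glo reagent co-dispensed with cells; 5 h preincubation, compound by pintool, 37 C, luminescence at 0–40 h.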
# [9] = qHTS assay to identify small molecule antagonists of the estrogen related receptor signaling pathway with the pleiotropic PPARgamma coactivator (PGC) from Tox21 10K library (AID 1224841; call rule not given here)
# Method in brief: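 PGC/ERR cell line, 2,000 cells/well, pre-incubated 6 hours at 37 C, then exposed to compounds for 18 hours at 37 C; luciferase read with One-Glo luminescence after 30 min at room temperature.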
# [10] = target: Thyrotropin receptor (Homo sapiens) (UniProt P16473); assay: qHTS assay to identify small molecule agonists of the thyroid stimulating hormone receptor (TSHR) signaling pathway (AID 1224843; calls by dose curve; further: nearly all actives have a fitted effect of over 45% in size; further: potency means the concentration at half of the fitted maximal effect); settings: TSHR-HEK293 cells, cAMP HTRF, agonist mode, 30 min; activation: at 92.4 µM (top of the series) unless noted
# Method in brief: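 TSHR-HEK293 cells in agonist mode, 30 min room-temperature step, then cAMP measured by competitive HTRF (cAMP-d2 with anti-cAMP cryptate) after 1 h at room temperature. Tested at 15 concentrations in triplicate.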
# [11] = qHTS assay to identify small molecule agonists of the constitutive androstane receptor (CAR) signaling pathway - cell viability counter screen (AID 1224836); further: nearly all actives have a fitted effect of over 45% in size
# Method in brief: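 23 h treatment, 37 C, 5% CO2. Cell line: HepG2 stably expressing hCAR with a CYP2B6-2.2kb construct. Co-treatment: PK11195, 0.75 uM final. Read-out: CellTiter-Fluor fluorescence intensity.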
# [12] = qHTS assay to identify small molecule agonists of H2AX - cell viability counter screen (AID 1224847; calls by dose curve; further: potency means the concentration at half of the fitted maximal effect; nearly all actives have a fitted effect of over 30% in size)
# Method in brief: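 Compounds tested at 15 concentrations were incubated 3 hr at 37C with wild-type CHO-K1 cells; cellular ATP-based luminescence (CellTiter-Glo) indicated viability.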
# Tags describe the fitted curve by direction and shape or compound fluorescence and quenching.
# Chain of UniProt Q14994 (Q14994 whole entry, looked up): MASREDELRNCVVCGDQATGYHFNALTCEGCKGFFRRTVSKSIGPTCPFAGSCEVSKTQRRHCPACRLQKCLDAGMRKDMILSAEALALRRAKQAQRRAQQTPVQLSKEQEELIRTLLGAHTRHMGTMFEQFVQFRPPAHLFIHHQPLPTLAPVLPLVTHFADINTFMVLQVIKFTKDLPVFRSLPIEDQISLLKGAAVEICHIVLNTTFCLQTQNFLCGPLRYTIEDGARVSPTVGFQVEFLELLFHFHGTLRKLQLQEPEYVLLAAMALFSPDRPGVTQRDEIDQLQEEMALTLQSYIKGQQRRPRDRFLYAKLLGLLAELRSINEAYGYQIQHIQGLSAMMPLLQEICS
# Chain of UniProt P08659 (P08659 whole entry, looked up): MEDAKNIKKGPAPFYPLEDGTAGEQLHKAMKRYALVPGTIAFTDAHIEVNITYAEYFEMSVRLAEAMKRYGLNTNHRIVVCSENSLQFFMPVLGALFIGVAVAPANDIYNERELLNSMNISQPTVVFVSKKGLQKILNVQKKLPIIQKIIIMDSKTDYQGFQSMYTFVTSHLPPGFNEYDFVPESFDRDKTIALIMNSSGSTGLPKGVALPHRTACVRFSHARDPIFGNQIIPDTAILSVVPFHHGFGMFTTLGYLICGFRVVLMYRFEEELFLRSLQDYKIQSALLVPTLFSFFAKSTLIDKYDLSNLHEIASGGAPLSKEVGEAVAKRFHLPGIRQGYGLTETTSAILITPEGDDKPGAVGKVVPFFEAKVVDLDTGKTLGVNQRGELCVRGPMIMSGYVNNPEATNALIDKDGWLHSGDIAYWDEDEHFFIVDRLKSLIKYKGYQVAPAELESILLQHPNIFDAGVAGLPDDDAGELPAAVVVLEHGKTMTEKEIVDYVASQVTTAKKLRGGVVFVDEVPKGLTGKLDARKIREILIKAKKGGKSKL
# Chain of UniProt P16473 (P16473 whole entry, looked up): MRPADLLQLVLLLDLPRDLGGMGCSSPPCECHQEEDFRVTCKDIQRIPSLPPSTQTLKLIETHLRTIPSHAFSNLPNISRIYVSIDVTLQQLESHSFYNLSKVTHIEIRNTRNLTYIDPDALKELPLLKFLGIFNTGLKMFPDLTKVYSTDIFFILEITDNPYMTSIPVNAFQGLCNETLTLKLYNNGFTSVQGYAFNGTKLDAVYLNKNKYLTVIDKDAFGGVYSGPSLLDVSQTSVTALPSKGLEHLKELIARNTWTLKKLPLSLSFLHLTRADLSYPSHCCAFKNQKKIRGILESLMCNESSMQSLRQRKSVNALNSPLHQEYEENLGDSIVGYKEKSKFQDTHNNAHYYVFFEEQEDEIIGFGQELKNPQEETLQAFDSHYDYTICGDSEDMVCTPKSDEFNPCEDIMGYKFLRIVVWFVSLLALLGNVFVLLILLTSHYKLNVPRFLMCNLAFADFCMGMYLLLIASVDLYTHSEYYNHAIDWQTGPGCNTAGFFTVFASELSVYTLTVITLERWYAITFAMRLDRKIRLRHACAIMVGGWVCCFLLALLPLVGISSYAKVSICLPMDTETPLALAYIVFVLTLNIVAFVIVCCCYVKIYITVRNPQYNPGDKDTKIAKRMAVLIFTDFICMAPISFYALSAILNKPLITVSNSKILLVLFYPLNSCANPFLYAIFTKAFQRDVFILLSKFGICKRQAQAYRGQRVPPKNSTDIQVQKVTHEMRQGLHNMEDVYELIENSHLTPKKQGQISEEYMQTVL
smiles,measurement,setting,value
ICCc1ccccc1,Potency,[1],"inconclusive: 87.5 µM [inhibitor, single point]"
same,Potency,[2],"inconclusive: 53.8 µM [cytotoxic, single point]"
same,Potency,[3],"inconclusive: 111 µM [activator, partial curve, poor fit]"
same,Potency,[4],inconclusive: 53.8 µM [single point]
same,Potency,[5],"inconclusive: 67.2 µM [inhibitor, partial curve, poor fit]"
same,Potency,[6],active: 19.1 µM
CCOC(=O)[C@@H](C)Oc1ccc(Oc2nc3ccc(Cl)cc3o2)cc1,Potency,[1],"inconclusive: 31.7 µM [inhibitor, partial curve]"
same,Potency,[7],"inconclusive: 61.1 µM [activator, partial curve, poor fit]"
same,Potency,[6],"inconclusive: 15.5 µM [falling, partial curve]"
Clc1ccccc1CN1CCc2sccc2C1,Potency,[1],"inconclusive: 8.71 µM [inhibitor, single point]"
same,Potency,[2],inactive
same,Potency,[8],"inconclusive: 23.9 µM [cytotoxic, partial curve, poor fit]"
Cc1cccc2c1ccc1ccccc12,Potency,[1],"inconclusive: 31.7 µM [inhibitor, full curve]"
same,Potency,[7],active: 61.1 µM
same,Potency,[9],"inconclusive: 77 µM [falling, single point]"
same,Potency,[8],inactive
C=CC(C)(O)CC/C=C(\C)CCC=C(C)C (stereo not drawn),Potency,[1],"inconclusive: 71 µM [inhibitor, partial curve, poor fit]"
same,Potency,[4],inactive
O=C(/C=C/c1ccccc1)NCCO,Potency,[1],"inconclusive: 30.9 µM [inhibitor, partial curve]"
same,Potency,[10],inactive
CC(=O)/C=C/C1C(C)=CCCC1(C)C (stereo not drawn),Potency,[11],inactive
CC(C)(C)C(=O)Oc1ccc(S(=O)(=O)Nc2ccccc2C(=O)NCC(=O)O)cc1,Potency,[1],"inconclusive: 43.6 µM [inhibitor, partial curve]"
same,Potency,[10],"inconclusive: 33.5 µM [activator, single point]"
same,Potency,[4],inactive
OCc1c2ccccc2cc2ccccc12,Potency,[1],"inconclusive: 71.3 µM [inhibitor, partial curve]"
same,Potency,[7],"inconclusive: 30.7 µM [activator, partial curve]"
same,Potency,[10],"inconclusive: 68.8 µM [activator, single point]"
same,Potency,[3],"inconclusive: 50.7 µM [cytotoxic, partial curve]"
same,Potency,[5],inconclusive: 61.3 µM [inhibitor]
same,Potency,[8],"inconclusive: 55.1 µM [cytotoxic, single point]"
CC(Oc1c(Cl)cccc1Cl)C1=NCCN1 (stereo not drawn),Potency,[1],inactive
same,Potency,[9],"inconclusive: 16.8 µM [falling, partial curve]"
same,Potency,[6],inactive
NC(=S)NNC(N)=S,Potency,[1],inactive
same,Potency,[4],inactive
same,Potency,[8],inactive
Oc1c(Cl)ccc(Cl)c1Cl,Potency,[1],"inconclusive: 71 µM [inhibitor, partial curve]"
same,Potency,[9],"inconclusive: 48.5 µM [falling, partial curve]"
same,Potency,[2],inactive
CCCCCCc1ccc(-c2ccc(C#N)cc2)cc1,Potency,[1],"inconclusive: 87.8 µM [inhibitor, single point]"
same,Potency,[7],"inconclusive: 67.4 µM [activator, single point]"
same,Potency,[4],"inconclusive: 60.6 µM [falling, partial curve, poor fit]"
CC1=NS(=O)(=O)c2cc(Cl)ccc2N1,Potency,[11],inactive
C/C(=C\c1ccc(C(=O)O)cc1)c1ccc2c(c1)C(C)(C)CCC2(C)C,Potency,[1],"inconclusive: 43.6 µM [inhibitor, partial curve, poor fit]"
same,Potency,[2],"inconclusive: 23.9 µM [cytotoxic, single point]"
O=S(=O)(Oc1ccc(Cl)cc1)c1ccccc1,Potency,[1],"inconclusive: 79.6 µM [inhibitor, single point]"
same,Potency,[8],"inconclusive: 61.6 µM [cytotoxic, single point]"
CC(O)CC(C)(C)O (stereo not drawn),Potency,[11],inactive
CN(C)C/C=C(/c1ccc(Br)cc1)c1cccnc1,Potency,[11],inactive
O=C1CCCCCCCCCCCC(=O)OCCO1,Potency,[1],inactive
same,Potency,[10],"inconclusive: 10.9 µM [inhibitor, partial curve, poor fit]"
same,Potency,[12],"inconclusive: 127 µM [cytotoxic, single point]"
CCCCCCCCCCCCCCCC/C=C/C1CC(=O)OC1=O (stereo not drawn),Potency,[11],inactive
Cc1c(I)c(=O)n(-c2ccccc2)n1C,Potency,[1],inactive
same,Potency,[8],inactive
CCOc1nc(F)cc2nc(S(=O)(=O)Nc3c(Cl)cccc3C(=O)OC)nn12,Potency,[1],"inconclusive: 89.4 µM [inhibitor, single point]"
same,Potency,[10],inactive
same,Potency,[2],"inconclusive: 34.7 µM [cytotoxic, partial curve]"
